Source: PubChem BioAssay AID1476 (National Center for Advancing Translational Sciences (NCATS), 2009)
The campaign covered roughly 200,000 compounds. About 4,500 (2.2%) were called active. Inconclusive means that the source gave no clear call. Such entries were picked first, then a sample of the others. The call rests on the fitted dose curve; in most records, active means well fitted inhibition curve with a large enough effect; inconclusive means small, poorly fitted or top-dose-only effect, or effect the other way; inactive means flat fitted curve, though single readings scatter. Potencies beside an inconclusive call are fits to weak or partial responses and may not hold up.

biological target: Cruzipain (Trypanosoma cruzi) (UniProt P25779); experiment: qHTS Assay for Promiscuous and Specific Inhibitors of Cruzain (without detergent); settings: purified cruzain, Z-FR-AMC fluorescence, no detergent; further: nearly all actives have a fitted effect of over 40% in size;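 on max response, negative = inhibition: plate controls were enzyme without inhibitor for no effect and buffer without enzyme for full effect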
Procedure, shortened: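 Detergent-free condition (0.00005% Triton X-100) in acetate buffer pH 5.5 with DTT. 1.5 nM enzyme and compound were pre-mixed 15 min, then 2 uM Z-FR-AMC substrate added; reaction progress from fluorescence change between first and third reads (60 s).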
Potency means the concentration at half of the fitted maximal effect; tags describe the fitted curve by direction and shape.

UniProt P25779, sequence (P25779 whole entry, looked up): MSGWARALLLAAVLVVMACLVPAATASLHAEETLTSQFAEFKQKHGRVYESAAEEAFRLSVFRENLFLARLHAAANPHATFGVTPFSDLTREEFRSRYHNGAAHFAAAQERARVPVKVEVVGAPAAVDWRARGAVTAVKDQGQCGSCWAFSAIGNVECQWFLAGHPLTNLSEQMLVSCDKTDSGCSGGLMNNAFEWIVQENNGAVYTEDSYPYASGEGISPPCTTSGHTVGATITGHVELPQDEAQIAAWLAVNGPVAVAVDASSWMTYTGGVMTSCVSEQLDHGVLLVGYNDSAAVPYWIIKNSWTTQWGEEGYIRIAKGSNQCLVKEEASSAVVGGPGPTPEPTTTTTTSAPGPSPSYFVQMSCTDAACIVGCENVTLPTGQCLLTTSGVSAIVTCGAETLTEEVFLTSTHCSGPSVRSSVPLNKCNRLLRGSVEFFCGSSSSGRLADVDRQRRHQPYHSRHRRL

Compound | Potency | max response, negative = inhibition
COC(=O)c1ccc(C(/C=C/[C@@H](C)C(=O)NCCN2CCCC2)NC(=O)OCc2ccccc2)cc1 (some centres not stated) | inconclusive: 25.1 µM [activator, single point] | –
N#Cc1c(Nc2ccccc2)sc(C(=O)C2CC2)c1N | inconclusive: 39.8 µM [inhibitor, single point] | –
COc1cc(C2CC(=O)Nc3c2c(C)nn3-c2nncc(-c3ccccc3)n2)cc(OC)c1OC (configuration not stated) | inconclusive: 31.6 µM [activator, single point] | –
O=C1CCCCCC1C1(O)C(=O)Nc2ccccc21 (configuration not stated) | inconclusive: 0.794 µM [inhibitor, partial curve] | –
Cc1ccc(C)c(N2CCN(S(=O)(=O)c3cc(C(=O)Nc4cc(Cl)cc(Cl)c4)ccc3F)CC2)c1 | – | inactive: -11.6%
Cc1cc(C(=O)N2CCN(C(c3ccccc3)c3ccccc3)CC2)on1 | inconclusive: 39.8 µM [activator, single point] | –
N#Cc1c(C(F)(F)F)cc(-c2cccs2)nc1SCc1cccnc1 | inconclusive: 31.6 µM [inhibitor, single point] | –
Cc1ccc(Cl)cc1NC(=O)c1cc(S(=O)(=O)N2CCCCCC2)cn1C | – | inactive: -3.02%
CCc1ccc2c(c1)NC(c1cccnc1)=NC(c1ccc(C(C)(C)C)cc1)=N2 | inconclusive: 31.6 µM [inhibitor, single point] | –
Cc1[nH]n(-c2ccccc2)c(=O)c1/C=N/NC(=O)c1cccc([N+](=O)[O-])c1 | inconclusive: 25.1 µM [activator, single point] | –
CSc1ccc(CCNC(=O)c2ccc(CS(=O)Cc3ccc(Cl)cc3)o2)cc1 (configuration not stated) | inconclusive: 39.8 µM [activator, single point] | –
Fc1ccc(C2CC(c3cccs3)=NN2C(=S)Nc2ccccc2)cc1 (configuration not stated) | inconclusive: 39.8 µM [inhibitor, single point] | –
COc1cc(CN(C(=O)COc2ccc(Cl)c(C)c2)c2ccccn2)cc(OC)c1OC | inconclusive: 31.6 µM [activator, single point] | –
Cc1ccc(C)c(N2CCN(C(=O)CN(C)S(=O)(=O)c3ccc4c(c3)CCC(=O)N4)CC2)c1 | inconclusive: 39.8 µM [activator, single point] | –
COCCn1c(N2CCN(c3ccc(OC)cc3)CC2)nc2c1c(=O)n(C)c(=O)n2C | inconclusive: 39.8 µM [activator, single point] | –
Cc1ccccc1-c1nnc(SCC(=O)N2CCCCC2)o1 | – | inactive: -2.07%
COc1cc(OC)c(Nc2c3c(nc4nc(-c5cccs5)nn24)CCCC3)cc1Cl | inconclusive: 39.8 µM [activator, single point] | –
